“And” between values parts separate entries of the source, which are not always exact repeats. Identical values can stand only once. About 40 (0.2%) of roughly 16,000 compounds were called active. Roughly 1% stayed inconclusive and do not appear here. Calls follow the shape of the dose curve; as a rule, active = well fitted activation curve with a large enough effect; inconclusive = small, poorly fitted or top-dose-only effect, or another doubt; inactive = no such curve, though single readings can be large or run the other way. The list shows a part of the results. Starred links: 1 amine or outer side, 2 acyl side, 3 side chain; linkers in the order of their positions; H or OH if unused. Positions of bridges follow the written chain, without caps; N, C: chain ends. Non-standard residues stand in square brackets, D forms with d. Residues, ends and D or L forms follow the SMILES beside them. Chains are numbered I, II in the order given. Actinocin(9to1) = Cc1c2oc3c(C)ccc(C(=O)[*:1])c3nc-2c(C(=O)[*:2])c(N)c1=O; NMeV = CN[CH](C(=O)O)C(C)C; Sar = CNCC(=O)O
% is scaled to controls: 0 for no effect and ±100 for the full control effect.

Chain of UniProt Q8WZA2 (Q8WZA2 whole entry, looked up): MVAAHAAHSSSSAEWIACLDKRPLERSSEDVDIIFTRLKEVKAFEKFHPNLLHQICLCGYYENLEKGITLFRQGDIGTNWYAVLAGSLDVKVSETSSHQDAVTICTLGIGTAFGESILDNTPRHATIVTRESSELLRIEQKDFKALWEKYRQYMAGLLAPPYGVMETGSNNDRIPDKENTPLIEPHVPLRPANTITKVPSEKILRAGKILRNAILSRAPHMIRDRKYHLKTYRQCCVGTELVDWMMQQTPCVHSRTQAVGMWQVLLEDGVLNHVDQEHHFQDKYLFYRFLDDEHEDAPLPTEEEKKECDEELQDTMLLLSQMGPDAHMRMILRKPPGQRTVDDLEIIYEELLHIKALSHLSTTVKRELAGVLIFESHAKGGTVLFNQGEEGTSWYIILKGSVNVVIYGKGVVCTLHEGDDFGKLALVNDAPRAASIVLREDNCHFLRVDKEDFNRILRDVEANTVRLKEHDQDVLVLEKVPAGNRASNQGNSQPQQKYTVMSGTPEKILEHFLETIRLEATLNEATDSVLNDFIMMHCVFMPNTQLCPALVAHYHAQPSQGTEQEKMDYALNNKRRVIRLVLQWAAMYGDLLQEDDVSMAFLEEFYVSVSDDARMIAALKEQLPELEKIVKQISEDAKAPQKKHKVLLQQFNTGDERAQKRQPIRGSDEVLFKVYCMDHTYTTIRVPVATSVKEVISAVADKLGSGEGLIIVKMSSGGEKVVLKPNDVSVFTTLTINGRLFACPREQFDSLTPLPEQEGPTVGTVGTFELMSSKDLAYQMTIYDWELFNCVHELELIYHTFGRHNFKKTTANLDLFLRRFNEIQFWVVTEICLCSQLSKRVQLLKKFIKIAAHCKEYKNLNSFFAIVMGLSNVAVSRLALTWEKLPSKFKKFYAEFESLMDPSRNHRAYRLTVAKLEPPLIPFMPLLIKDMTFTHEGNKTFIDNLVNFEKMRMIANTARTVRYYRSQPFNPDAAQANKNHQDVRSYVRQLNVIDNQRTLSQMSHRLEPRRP

The target in the experiment is Rap guanine nucleotide exchange factor 4 (Homo sapiens) (UniProt Q8WZA2). Description: Validation qHTS for agonist of cAMP-regulated guanine nucleotide exchange factor 4 (EPAC2).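 Also: exchange makes BODIPY-GDP fluorescence drop when released from Rap1B; series mostly up to about 150 µM.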 The note with it: EPAC2 Rap1B BODIPY-GDP exchange, fluorescence; activation: active compounds read high. The essentials:
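Fluorescent exchange assay: 100 nM EPAC2 with 250 nM RAP1B-BODIPY-GDP and 50 uM GDP; compound added, 5 min at room temperature, then read (ex 480/em 540 nm) every 5 min for 30 min. Normalized to 6.5 mM cAMP agonist control.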
(qHTS replaces the single test concentration by a dilution series.)
As to `CN[C@H](CC(C)C)C(=O)N[C@H]1C(=O)N[C@@H](CC(N)=O)C(=O)N[C@H]2C(=O)N[C@H]3C(=O)N[C@H](C(=O)N[C@@H](C(=O)O)c4cc(O)cc(O)c4-c4cc3ccc4O)[C@H](O)c3ccc(c(Cl)c3)Oc3cc2cc(c3O[C@@H]2O[C@H](CO)[C@@H](O)[C@H](O)[C@H]2O[C@H]2C[C@](C)(N)C(O)[C@H](C)O2)Oc2ccc(cc2Cl)[C@H]1O` (stereo partly drawn), the activation was inactive: 2.42% and inactive: -6.97%.
The result for `CCSC(=N)N` reads inactive: 1.23% and inactive: -12.4% and inactive: 1.22%; that for `CCC(N)(C(=O)O)c1ccc(C(=O)O)cc1` (stereo not drawn), inactive: 0.302%.
The result for `CN(C)Cc1ccccc1-c1nccc(N(C)C)n1` reads inactive: -7.19%.
`CC(=O)c1ccc(S(=O)(=O)NC(=O)NC2CCCCC2)cc1`: the activation is inactive: -4.79% and inactive: 12.6%.
On to `CN(Cc1ccco1)c1ncnc2ccc(-c3cccc(C#N)c3)cc12`, for which the activation was inactive: 5.25%.
Turning to `CN(CCO)CC(O)Cn1cnc2c1c(=O)n(C)c(=O)n2C` (stereo not drawn) (tested in a mixture with another compound), the activation was inactive: 9.71%.
As to `COCCn1c(=O)c(-c2cccs2)nc2cnc(OC)nc21`, the activation was inactive: -3.53%.
The result for `Cc1cnc(CNc2cc(-c3ccc(N(C)C)cc3)ncn2)cn1` reads inactive: -19.7%; that for `c1ccc(-c2cn(CC3CCCCC3)nn2)cc1`, inactive: -14.8%.
Regarding `Oc1ccc(-c2cnccn2)cc1CN1CCN(C2CCCCC2)CC1`, the activation was inactive: -11.2%.
The result for `Cc1cc2c(cc1Cl)N(C(=O)Nc1ccc(Oc3cccnc3C)nc1)CC2` reads inactive: -35.1%; that for `O=C(c1cccnc1)C1CCCN(Cc2ccc3c(c2)CN(C(=O)c2ccc4[nH]ccc4c2)CCO3)C1` (stereo not drawn), inactive: -19.8%; that for `O=c1c(O)c(-c2ccc(O)c(O)c2)oc2c(OC[C@@H]3O[C@@H](O)[C@@H](O)[C@H](O)[C@H]3O)c(O)cc(O)c12`, inactive: -4.99%.
The figure for `COc1cc(-c2nc(C)cnc2C)cc2c1OCCN(C(=O)Cn1nc(-c3ccccc3)c3ccccc3c1=O)C2` is inactive: -10.4%.
The figure for `CCNc1ncc2nc(-c3ccccc3)c(=O)n(CCOC)c2n1` is inactive: 8.48%.
Consider `COCC(=O)N1CCC2(CCN(Cc3ccc(C#N)cc3)CC2)CC1`, for which the activation was inactive: -2.38%.
The figure for `Cc1ccc(S(=O)(=O)NC(=O)NC2CCCC2)cc1` is inactive: -3.75%; for `O=C(N[C@@H](Cc1ccccc1)C(=O)CCl)OCc1ccccc1` it is inactive: -40.9%.
Turning to `COc1ccc2c(c1)[C@]1(C)CCC(=O)C[C@H]1CC2`, the activation is inactive: -16%.
As to `Cc1cc2c(c(-c3nc4ccccc4s3)c1)OC(CNC(=O)CCc1cccnc1)C2` (stereo not drawn), the activation was inactive: 5.87%.
For `CCNc1ncc2nc(CCc3ccccc3)c(=O)n(C[C@H]3CCCO3)c2n1`, the activation was inactive: -5.55%.
In the case of `COc1ccccc1CCn1c(=O)c(-c2ccc(F)cc2)nc2cncnc21`, the activation is inactive: -11.1%.
Regarding `CCOc1cc(-c2nccc3cc(OC)c(OC)cc23)cc(OCC)c1OCC`, the activation was inactive: -53.3%.
For the compound `Cc1ccc2c(Br)cc(Br)c(O)c2n1`, the activation was inactive: -1.17%.
The figure for `CC(CC=O)CCCC(C)(C)O` (stereo not drawn) is inactive: -20.3%.
Turning to `COc1ncc2nc(C)c(=O)n(CCC#N)c2n1`, the activation is inactive: -9.33%.
The figure for `CCC1CN(CCNC(=O)c2ccc3c(c2)OCO3)Cc2cc(OC)ccc2O1` (stereo not drawn) is inactive: -1.73%; for `Nc1cnccn1` it is inactive: -16.9%.
For `O=C1CCN(Cc2ccccc2)S(=O)(=O)c2ccc(F)cc21`, the activation was inactive: -25%.
`CC[N+]1(C)C2CCC1CC(OC(=O)[C@H]1CCC(C(=O)OC3CC4CCC(C3)[N+]4(C)CC)(c3ccccc3)c3ccccc31)C2` (stereo partly drawn): the activation is inactive: 9.44%.
Regarding `CN(C)c1ccc(/C=C/N2C=CCc3c2ccc2ccccc32)cc1`, the activation is inactive: -11.8%.
`O=c1c(-c2cc(F)cc(F)c2)nc2cnc(N3CCNCC3)nc2n1CCc1ccccc1`: the activation was inactive: 1.94%.
The figure for `C#CCCCCCCCCCCCC(=O)CC(O)COC(C)=O` (stereo not drawn) is inactive: -7.08%; for `COc1ccc(C(=O)N2CCC3(CC2)CN(c2cccc(-c4ccccc4)c2)C3)cc1` it is inactive: 3.64%; for `C[C@H]1[C@H](C)CC[C@]2(C(=O)O)CC[C@]3(C)C(=CCC4[C@@]5(C)C[C@@H](O)[C@H](O)[C@@](C)(CO)[C@@H]5CC[C@]43C)[C@H]12` (stereo partly drawn) it is inactive: -55.7%.
As for `O=C(Oc1ccccc1)N1CCC2(CCCN(c3ccc(-c4ccccc4)cc3)C2)CC1`, the activation is inactive: -3.17%.
The figure for `O=C1c2c(O)cccc2[C@@H]([C@@H]2O[C@H](CO)[C@@H](O)[C@H](O)[C@H]2O)c2cc(CO)cc(O)c21` is inactive: -17.6%; for `COc1cc2cc3c4cc(OC)c(OC)cc4cc[n+]3c(C)c2cc1OC` it is inactive: 10.4%.
On to `Cc1c2oc3c(C)ccc(C(=O)NC4C(=O)NC(C(C)C)C(=O)N5CCCC5C(=O)N(C)CC(=O)N(C)C(C(C)C)C(=O)OC4C)c3nc-2c(C(=O)NC2C(=O)NC(C(C)C)C(=O)N3CCCC3C(=O)N(C)CC(=O)N(C)C(C(C)C)C(=O)OC2C)c(N)c1=O` (stereo not drawn) (I: TVP[Sar][NMeV] / II: TVP[Sar][NMeV]; ester I:1-I:C, II:1-II:C; linker I:N-II:N via Actinocin(9to1); configuration not given here), for which the activation was inactive: -0.481%.
The result for `CC(COc1ccc(/C=C/c2ccccc2)cc1)[N+](C)(C)C` (stereo not drawn) reads inactive: -58.8%.
The result for `O=c1cnc2cncnc2n1Cc1ccccc1Cl` reads inactive: 0.875%.
The result for `CCCCCCCCN1[C@@H](CC(=O)OCC)c2cc(F)ccc2S1(=O)=O` reads inactive: -3.46%; that for `CC(=O)OC1CC2C(C)(C)CCC(=O)[C@@]2(C)C2CC[C@@]3(C)C(c4ccoc4)OC(=O)C4OC43[C@]12C` (stereo partly drawn), inactive: 7.55%.
In the case of `COCCNc1ncnc2ccc(-c3ccccc3C)cc12`, the activation is inactive: -17.1%.
For `c1ccc(C2CN3CCSC3=N2)cc1` (stereo not drawn), the activation was inactive: -10.2% and inactive: -33.3%.
Regarding `COc1cccc(-c2cc(=O)c3cc(O)ccc3o2)c1`, the activation is inactive: -8.27%.
With `COCC(=O)Nc1cc(C(=O)N2CCCC(C(C)=O)C2)cc2nc(-c3ccccc3)n(C)c12` (stereo not drawn), the activation is inactive: 3.29%.
The result for `COC(=O)c1c(OCc2cccnc2)cc(=O)n2c1CCN(C(=O)c1ccc(OC)c(F)c1)CC2` reads inactive: -13.4%; that for `CC(C)CN1CC[C@@]2(CCCN(C(=O)c3cnccn3)C2)C1`, inactive: -23.6%; that for `CSc1ccc(-c2ccc(C(=O)NCC3CCCO3)c(N3CCC(O)CC3)n2)cc1` (stereo not drawn), inactive: -6.45%.
For `COc1cccc(Nc2ncc3nc(-c4ccccc4)c(=O)n(C4CC4)c3n2)c1`, the activation was inactive: -7.24%.
The figure for `O=c1c(O)c(-c2ccc(O)c(O)c2)oc2c(OC3OC(CO)C(O)C(O)C3O)c(O)cc(O)c12` (stereo not drawn) is inactive: -8.2%.
The result for `COc1ccc(NC(=O)c2ccc(-c3ccc(-c4noc(C)n4)cc3C)cc2)cc1OCCN(C)C` reads inactive: -7.88% and inactive: 5.79%; that for `N#Cc1ccc(CN2CC[C@@]3(CCCN(C(=O)c4cccc(F)c4)C3)C2)cc1`, inactive: -5.78%; that for `NCCCC[C@H](N[C@@H](CCc1ccccc1)C(=O)O)C(=O)N1CCC[C@H]1C(=O)O`, inactive: -0.853%.
The result for `NC1(C(=O)O)CCCC1` reads inactive: -8.37%.
On to `O=C(/C=C/c1ccccn1)NCC1Cc2cccc(-c3ncccn3)c2O1` (stereo not drawn), for which the activation is inactive: -18.3%.
The figure for `CO[C@H]1[C@H](NC(=O)c2ccsc2)c2ccccc2C12CCN(Cc1cnn(C)c1C)CC2` is inactive: 1.86%.
In the case of `COCC(=O)Nc1cc(C(=O)N2CCN(c3ccccc3)CC2C)c2c(c1)nc(-c1ccncc1)n2C` (stereo not drawn), the activation was inactive: -7.41%.
For the compound `Cc1ccc(CN2CCOc3ccc(C(C)(O)COc4ccccc4)cc3C2)o1` (stereo not drawn), the activation was inactive: -9.89%.
The result for `CN(C)C(=O)c1ccc(-c2ccc3ncnc(NC4CCNCC4)c3c2)cc1` reads inactive: 1%; that for `Cc1nc2cnc(Nc3ccccc3)nc2n(Cc2ccc(F)cc2)c1=O`, inactive: 7.06%; that for `COc1cc2c(cc1OC)/C(=C/c1ccc(N(C)C)cc1)C=C2`, inactive: -1.18%.
On to `c1ccc2c(c1)CCC[C@H]2Nc1nc2ccccc2[nH]1`, for which the activation is inactive: -25.6%.
The figure for `CCCCCCCCCCCC[n+]1ccc2ccccc2c1` is inactive: 8.11%; for `CC(C)(C)NC[C@H](O)COc1nsnc1N1CCOCC1` it is inactive: 0.408% and inactive: -10.7% and inactive: -20%.
For the compound `C[C@]12CCC(=O)C=C1CC[C@@H]1[C@@H]2[C@@H](O)C[C@@]2(C)[C@H]1CC[C@]2(O)C(=O)COC(=O)CCC(=O)O`, the activation was inactive: -31%.
The figure for `Cc1cc(C(=O)NCC2CCC3(CCN(Cc4ccc5ccccc5c4)CC3)O2)n(C)n1` (stereo not drawn) is inactive: -7.17%; for `CN(C)c1ccc(C=O)c(O)c1` it is inactive: -12.8%; for `Oc1ccccc1O` it is inactive: -33.7%.
For `N[C@@H](C(=O)O)c1ccc(P(=O)(O)O)cc1`, the activation is inactive: -12%.
The figure for `Cc1cccc(CNC(=O)c2cnn(-c3ncc(C)c(-c4cccs4)n3)c2C2CC2)n1` is inactive: 5.07%; for `C[C@@H]1CCC2[C@](C)(CO)[C@@H](O)CC[C@]2(C)[C@]12CCC(CO)(CCO)O2` (stereo partly drawn) it is inactive: -7.73%.
The figure for `O=C(NCC1CCC2(CCN(Cc3cccc4cccnc34)CC2)O1)c1ccco1` (stereo not drawn) is inactive: 3.35%; for `O=C1CCN(Cc2ccccc2)CCN1CCOc1ccccc1` it is inactive: -18.1%; for `COC(=O)[C@@H]1CCCN1Cc1ccc2c(c1)CN(Cc1cccn1-c1ccc(Cl)cn1)CCO2` it is inactive: -1.14%.
The result for `O=c1c(-c2ccc(Cl)cc2)nc2cncnc2n1Cc1ccccc1Cl` reads inactive: 4.02%.

(Values after PubChem BioAssay AID1645887 (National Center for Advancing Translational Sciences (NCATS), 2021).)
